Here are results for six molecules from the antibiotic and cytotoxicity screens of Wong et al. (2023).

Each structure is given as a SMILES string. The list shows a part of the results.

In experiment [1] the test system is HSkMC (human skeletal muscle cells). The experiment is described as follows: cytotoxicity call (relative viability < 0.9). The following applies: 10 µM.
Experiment [2] relates to HepG2. The experiment is described as follows: cytotoxicity call (relative viability < 0.9). To be noted: 10 µM.
The subject of experiment [3] is S. aureus RN4220. The experiment is described as follows: growth inhibition call (relative growth <= 0.2). To be noted: 50 µM.

On to `COC(=O)C[C@H]1CC[C@H]2[C@@H](COC[C@H](O)CN2S(=O)(=O)c2ccc(F)cc2)O1`, for which the cytotoxicity call in experiment [1] and in experiment [2] was “inactive” throughout. Moreover, the growth inhibition call in experiment [3] is “inactive”.

`C[C@@H]1CN([C@H](C)CO)C(=O)Cc2cc(NS(C)(=O)=O)ccc2O[C@H]1CN(C)Cc1ccc(C(=O)O)cc1`: the cytotoxicity call in experiment [1] and in experiment [2] was “inactive” each time. The growth inhibition call in experiment [3] was “inactive”.

Turning to `CC(=O)OC1CC2CCC3C(CCC4(C)C3CC([N+]3(C)CCCCC3)C4OC(C)=O)C2(C)CC1N1CCCCC1.[Br-]` (stereo not drawn), the cytotoxicity call in experiment [1] and in experiment [2] was “inactive” throughout. For the same molecule, the growth inhibition call in experiment [3] is “inactive”.

As for `N#C[C@H]1[C@H](c2ccc(C#Cc3ccccn3)cc2)[C@@H](CO)N1C(=O)CN1CCOCC1`, the cytotoxicity call in experiment [1] and in experiment [2] was “inactive” throughout. Besides, the growth inhibition call in experiment [3] is “inactive”.

As for `COc1c(OC)c2occc2c2oc(=O)ccc12`, the cytotoxicity call in experiment [1] and in experiment [2] was “inactive” throughout. In experiment [3], the growth inhibition call is “inactive”.

Regarding `C[C@@H]1CN([C@@H](C)CO)C(=O)c2cc(NC(=O)NC3CCCCC3)ccc2O[C@@H](C)CCCCO[C@H]1CN(C)CC1CCCCC1`, in experiment [1], the cytotoxicity call was “inactive”. For the same molecule, the cytotoxicity call in experiment [2] is “active”. In experiment [3], the growth inhibition call is “inactive”.
